Reference: paper PMC12136788
This is one part of the list.

T1: UNK ZnF1-6 (called full-length) (human, UniProt Q9C0B0 30-357)
T1 sequence: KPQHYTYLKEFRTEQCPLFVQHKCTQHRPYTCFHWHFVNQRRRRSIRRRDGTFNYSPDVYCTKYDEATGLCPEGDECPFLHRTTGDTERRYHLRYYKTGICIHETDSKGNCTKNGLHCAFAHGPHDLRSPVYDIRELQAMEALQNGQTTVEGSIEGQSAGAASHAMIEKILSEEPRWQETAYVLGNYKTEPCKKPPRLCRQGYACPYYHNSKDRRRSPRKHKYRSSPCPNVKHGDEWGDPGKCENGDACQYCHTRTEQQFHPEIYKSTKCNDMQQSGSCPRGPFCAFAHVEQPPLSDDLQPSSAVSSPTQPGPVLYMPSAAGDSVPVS

B1: chr17:15628647:15628976:-|three_prime_utr|ENSG00000221926|control|control|control (ssRNA)
RNA: GGGAGUUCUACAGUCCGACGAUCUUUCCGGAGGCUCGGGGUCUAUAUCGACUUCCCGGGAGGGAUCCUUUCCUUCUAUGGCGUAGAGUAUGAUACCAUGACUCUGGUUCACAAGUUUGCCUGCAAAUUUUCAGAACCAGUCUACAACAGAGGAUUGAGCAUCA
B2: chr3:139561012:139561392:-|CDS|ENSG00000163864|control|control|control (ssRNA)
RNA: GGGAGUUCUACAGUCCGACGAUCGAAGGAUGCGCACAUCCAGGAAAUAGUGGAGAAGUUUGGCUUGGUGUGCGUGGGCCGAGUAGGUCACGACCCAAAAGGUUACAUCGCAGAAUCUCCCAUCCUACGGAUGCACCAGCACAACAACAGAGGAUUGAGCAUCA
B3: chr6:56640275:56640385:-|CDS|ENSG00000151914|unk|total|mutant (ssRNA)
RNA: GGGAGUUCUACAGUCCGACGAUCGACUUCCCGCCUGACUCCAUCUGUCACUCCAGCUUAUACACCUGGUUUCCCAUCAGGAUCCGUUCCAAAUUUCAGUUCAGGAGCCGAGCCAAAUUCAUUGCAAACUUUGAAGUUGAUGCACAACAGAGGAUUGAGCAUCA
B4: chr19:1925360:1925461:+|3pUTR|ENSG00000227500|msi1|FALSE|unique (ssRNA)
RNA: GGGAGUUCUACAGUCCGACGAUCUCUCGAACUCCUGACCUCAAGUGAUCCACCCGCCUUGGCCUCCCAAAGUGCUGGGAUAAUAGGUGUCAGCCACCGCGCCCAGCCUGGAGUGGCCUUUUAUGAGAGGGGACCCGUCAAAUCCAACAGAGGAUUGAGCAUCA
B5: chr3:52707940:52708050:+|3pUTR|ENSG00000114902|msi1_unk|total|mutant (ssRNA)
RNA: GGGAGUUCUACAGUCCGACGAUCUUCCGUUCUCUUUAUACUUCAUUUCCCGCCCAGUUGGGUUUUGAUUUAUAUAAGCCGUUCCGACCUUCUCUUCAUAAUCUUGCUCUGAGAUGGGGAACAGAACACACAAGUAUGAAGUUUCAACAGAGGAUUGAGCAUCA
B6: chr19:46720021:46720126:-|3pUTR|ENSG00000090372|unk|FALSE|unique (ssRNA)
RNA: GGGAGUUCUACAGUCCGACGAUCGCCGCUCCUGGUAUCAGAGCUGCUUUCCAGAGGGCAGCACAGCCAGGGCCGGGUGUCUUUAGGGAUCAGUUUUUCCAAGACUCCAGAAGGUGCCAGGUUCUCCCCUUGAGCUCCUGCUCCCAACAGAGGAUUGAGCAUCA
B7: chr19:45844017:45844118:-|CDS|ENSG00000125755|msi1|FALSE|unique (ssRNA)
RNA: GGGAGUUCUACAGUCCGACGAUCGCCCGCCAGAGACCCAUGUUCAUGUCUGAGGUGAUCCAGGCCUAUGAAACUCUGCAUGGUAGGUCAUUGUCCUCCCCCCUCCCCCUGCCUUCUCUUCACUGGCCAGUCUGCUCUUUCUUUCAACAGAGGAUUGAGCAUCA
B8: chr12:42105817:42106069:-|CDS|ENSG00000151233|control|control|control (ssRNA)
RNA: GGGAGUUCUACAGUCCGACGAUCAUUGCUGCAAUGGCACCAGAACAUGAGGAACCUCGAAUAGGAUGGUAUAAUCGCUUUGCUAGGCAUCCAUAUUAUGGAAAAACUGGAGUAAACUCUGGAGUUAUGUUGAUGAACAUGACUCAACAGAGGAUUGAGCAUCA
B9: chr2:96373863:96373964:+|3pUTR|ENSG00000121152|unk|FALSE|unique (ssRNA)
RNA: GGGAGUUCUACAGUCCGACGAUCUAGAACUGGCAAAAUAUUUGAGUGUCCACUAGAUGAGUAUCAGACCUAGUCCUUACCCUUAGGGGGAUGCAGUCCUGGUUGUUAUCCAGGAUACACACCUGUCAGUAUAAGGCAGAAGAUCAACAGAGGAUUGAGCAUCA
B10: chr7:127580627:127582013:-|three_prime_utr|ENSG00000179562|control|control|control (ssRNA)
RNA: GGGAGUUCUACAGUCCGACGAUCAGGAGUCUUCAAUGUGGGAAGGGAUUUUCUGCCAAAUGCCAUUAAUGCUGCUUUAUCCUUAGGCCCUAGAGAUACUGAAAGUCCUGGGGCAGUAUCUUCUGAUGGUGUGCAUGUGAGGAGCAACAGAGGAUUGAGCAUCA
B11: chr12:111683145:111683307:-|CDS|ENSG00000089234|control|control|control (ssRNA)
RNA: GGGAGUUCUACAGUCCGACGAUCAAAGACGACACUAGCCUCAGCUGUAGCCUGUUUAGAAGGCAAGUCACCAGGAGAGAAAGUAGCGAUUAUCCAUCAGCAUCUCGGCCGUCGAGAAAUGACAGAUGUGAUCAUUGAGACCAUCAACAGAGGAUUGAGCAUCA
B12: chr8:7990417:7990620:-|CDS|ENSG00000205989|control|control|control (ssRNA)
RNA: GGGAGUUCUACAGUCCGACGAUCGAUGUCUGCAACAUAGUAGAAGAUCAAAUUGGUGCCUGCCGAAGAAGGAUGAAGUGCUGUAGAGCAUGGUGGAUUUUAAUGCCAAUUCCAACACCACUUAUCAUGUCAGAUUAUCAAGAACAACAGAGGAUUGAGCAUCA
B13: chr4:140153917:140154018:-|5pUTR|ENSG00000196782|msi1|total|mutant (ssRNA)
RNA: GGGAGUUCUACAGUCCGACGAUCUUUGCAGUCGCCUCGGACUGUCCAUGUGUUUACUUCCCCCAGCCCGAGGAUUCGAUAUCCCGGUUCCUGUGAAAUGCAACUGAGCAGCCAAAGUACUUUGAGAACACGGGGCGGCAUAAACAACAGAGGAUUGAGCAUCA
B14: chr14:102225094:102226328:-|three_prime_utr|ENSG00000080823|control|control|control (ssRNA)
RNA: GGGAGUUCUACAGUCCGACGAUCCCUCCCAUCUGCUCUGCUGUCCCCACACCUGCGGUGCAGCCAGCCUGCCACAAGGCAGCUAGAGUCCAGCUAGACCCACCCCUGGCACGGCCGACCUCUUCCUGGCUUCUUCUGGGCCUACAACAGAGGAUUGAGCAUCA
B15: chr2:218454035:218454136:-|3pUTR|ENSG00000135913|msi1|total|mutant (ssRNA)
RNA: GGGAGUUCUACAGUCCGACGAUCGAGAUUUCUUCACACAGUAUGUUCAUCAUAUAUCAUCAUCAUUAUUAUGGUGGUAAAGACCGAAUCUUUUUUCUUUUUUGUCAUUCUGCCAUGGAGCAGCAUUACCCUAAUGGAUUGCAACAACAGAGGAUUGAGCAUCA
B16: chr11:69653362:69653473:+|3pUTR|ENSG00000110092|msi1_unk|total|mutant (ssRNA)
RNA: GGGAGUUCUACAGUCCGACGAUCACUGCCAUGUACCCGUUUCCGUUUUCUCUCCGAACAUUGUAUUACAGAUGCCUUUUUUGCCGUUUUUUUUUUUUUUAUGUGAUCAAUUUUGACUUAAUGUGAUUACUGCUCUAUUCCAAACAACAGAGGAUUGAGCAUCA
B17: chr10:73917138:73917420:+|3pUTR|ENSG00000122861|msi1|total|mutant (ssRNA)
RNA: GGGAGUUCUACAGUCCGACGAUCGGAAUGUAUUAUUCUGCAGCAUGACCUGUGACCAGCACUGUCUCAGUUUCACUUUCACACCGAUGUCCCUUUCUUGGCCAGUUAUCCCUUCCUUUCCGCCCCGUUCAUCCAAUCCUCACUCAACAGAGGAUUGAGCAUCA
B18: chr13:110149936:110150037:-|3pUTR|ENSG00000187498|msi1|total|mutant (ssRNA)
RNA: GGGAGUUCUACAGUCCGACGAUCUUCUUGUAUUAUAAUUAAUUUUCUACCCCCAGAGAUAAAUGUUUGUUUAUAUCACUGUCCCGCUGUUUCAAAAUUCCGGUCCCUUGGUCUGUACAAAUAACCGCAAUGUAAAAAUGGUUUCAACAGAGGAUUGAGCAUCA
B19: chr13:28712679:28713550:-|CDS|ENSG00000139508|control|control|control (ssRNA)
RNA: GGGAGUUCUACAGUCCGACGAUCUGAAGUUUUUAUAGGUUAUGGAUCAGCUUUGGGUAGUGCCUCUUUUUUGACUAGUUUCCUAGGAAUAUGGCUUUUUUCUUAUUGUAUGGAAGAUAUUCAUAUGGCCUUCAUUGGGAUUUUCAACAGAGGAUUGAGCAUCA
B20: chr21:34788506:34788607:-|3pUTR|ENSG00000159216|msi1|total|mutant (ssRNA)
RNA: GGGAGUUCUACAGUCCGACGAUCUUGUUAAUGCCUAUAACUUUUUUUCAAUUUUUUUGUGUGUGUUUCUAAGGACUUUUUCUCCGGUUUGCUAAAUACUGCCGGGAAAAAAAUGCUUCUUUCUACUUUGUUUAUUUCCGACUUCAACAGAGGAUUGAGCAUCA
B21: chr3:31579932:31580050:+|CDS|ENSG00000163527|unk|FALSE|unique (ssRNA)
RNA: GGGAGUUCUACAGUCCGACGAUCUACAUCUAUAUCUACUUUCCUGCUUACAAGAGAACUUUGGAACCAAGGAGCAGGACUUUUAGCUGCUUGUUUUAUUGCUAUUGUACCAGGCUACAUAUCUCGGUCAGUAGCUGGAUCCUUCAACAGAGGAUUGAGCAUCA
B22: ENSG00000102230:stop:overlap|stop_codon|ENSG00000102230|stop_codon|NA|stop_codon (ssRNA)
RNA: GGGAGUUCUACAGUCCGACGAUCUGCAGGCCUUAUCCCCGAAGCAGAGCCCUCUGAAGAGUUGGGCGAGGUGCAGAGACUUCUAGCUGGACAACCUACACAAACCUUAGCGUCUAGAGUCACUCUAACCUUGCUAAGGAAGGACAACAGAGGAUUGAGCAUCA

Molecular target: T1, UNK ZnF1-6 (called full-length)
Assay: nsRBNS (natural sequence RNA bind-n-seq); RBNS binding buffer (assumed for nsRBNS): 25 mM Tris pH 7.5, 150 mM KCl, 3 mM MgCl2, 0.01% Triton X-100, 500 ug/ml BSA, 20 U/ml SUPERase-In, 4 C; UNK is unkempt and MSI1 is Musashi-1; names of the RNAs are library labels; protein concentration not given here; high values mean tight binding

Binder	binding signal [enrichment R]
B1	0.489
B2	0.654
B3	0.514
B4	0.561
B5	0.313
B6	0.754
B7	1.07
B8	0.776
B9	0.672
B10	0.88
B11	1.28
B12	0.643
B13	0.678
B14	0.975
B15	0.449
B16	1.63
B17	0.837
B18	1.55
B19	1.1
B20	1.35
B21	0.508
B22	0.736
